The record followed here is the BET-seq Pho4 binding data (Le et al. 2018).

The other results are listed elsewhere or left out. Values were computed here from the reads of four pooled replicates and scatter widely.

The target of this assay is T1, Pho4 (S. cerevisiae) (UniProt P07270).
T1 sequence: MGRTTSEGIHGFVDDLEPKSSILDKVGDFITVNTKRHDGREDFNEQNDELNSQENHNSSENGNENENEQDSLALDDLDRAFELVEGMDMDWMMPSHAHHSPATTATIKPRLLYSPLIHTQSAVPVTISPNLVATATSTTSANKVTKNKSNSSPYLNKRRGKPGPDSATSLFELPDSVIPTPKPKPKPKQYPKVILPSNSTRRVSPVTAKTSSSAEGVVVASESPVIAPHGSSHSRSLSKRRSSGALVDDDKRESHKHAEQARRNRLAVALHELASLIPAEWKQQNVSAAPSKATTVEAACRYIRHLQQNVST
As to the kind of experiment: relative binding free energy (BET-seq); higher = weaker binding. As to conditions: reference: library average.
Take AGGGTCACGTGTTGTT: the “relative binding free energy” value came out at 0.16 kcal/mol.
On to AGTGGCACGTGCTTAG, for which the “relative binding free energy” value is -0.31 kcal/mol.
Next, AGCGTCACGTGAGTTA: 0.31 kcal/mol.
Turning to GGTAGCACGTGTGGTC, the “relative binding free energy” value came to 0.07 kcal/mol.
Next, GTTTGCACGTGAGTTC: 0.21 kcal/mol.
Next, AAGGGCACGTGTTTGG: -0.03 kcal/mol; AGGTTCACGTGTTGGA: 0.2 kcal/mol; GTGTCCACGTGTAGTT: 0.12 kcal/mol.
Next, CTTAACACGTGGGAGT: -0.03 kcal/mol.
For the sequence GGTTGCACGTGCGCTT, the “relative binding free energy” value amounted to 0 kcal/mol.
Consider TGGGGCACGTGGTGGG, for which the “relative binding free energy” value is -0.14 kcal/mol.
On to ATTAGCACGTGGGGAA, for which the “relative binding free energy” value is -0.21 kcal/mol.
Next, CGGCGCACGTGAGGTG: 0.17 kcal/mol.
Next, GTGGTCACGTGTATTG: 0.12 kcal/mol; TTTCACACGTGTTCTG: 0.21 kcal/mol.
As for ATTTGCACGTGCGATT, the “relative binding free energy” value is 0.05 kcal/mol.
Next, AATCGCACGTGTGATT: 0.1 kcal/mol; TTGTGCACGTGGAGTA: -0.01 kcal/mol; GGTGTCACGTGAGAGA: 0.37 kcal/mol.
CTTGACACGTGGTTCG: the “relative binding free energy” value was found to be 0.1 kcal/mol.
Consider ATAATCACGTGTTTGT, for which the “relative binding free energy” value was 0.12 kcal/mol.
Next, ATGTGCACGTGGGAGG: -0.2 kcal/mol.
With AGTCGCACGTGGTTTA, the “relative binding free energy” value is -0.14 kcal/mol.
Next, TTTAACACGTGAGGAT: 0.13 kcal/mol.
Next, TTTTGCACGTGCATCT: -0.08 kcal/mol.
Under TTGATCACGTGATGAT stands 0.47 kcal/mol; under GAGGACACGTGGGAGC, 0.04 kcal/mol.
Consider ATGTACACGTGGTCTT, for which the “relative binding free energy” value stood at 0.02 kcal/mol.
Next, CTTGTCACGTGTCTGG: 0.12 kcal/mol; TATTACACGTGTGGTA: 0.06 kcal/mol; GATGGCACGTGCCTGG: -0.06 kcal/mol.
On to TTTGTCACGTGTGCTT, for which the “relative binding free energy” value turned out to be 0.18 kcal/mol.
Next, GGTTACACGTGGGAGT: 0.1 kcal/mol; AAATTCACGTGTTTAA: 0.19 kcal/mol.
Under TTTGTCACGTGGAGCT stands 0.18 kcal/mol; under GGGTTCACGTGGGCCG, 0.14 kcal/mol.
Under GCGGTCACGTGTTTGT stands 0.13 kcal/mol.
Consider GCGCGCACGTGTATGG, for which the “relative binding free energy” value was -0.01 kcal/mol.
Consider TCGAACACGTGGTGAG, for which the “relative binding free energy” value amounted to 0.13 kcal/mol.
Under TAGTGCACGTGGGCTT stands -0.12 kcal/mol; under GTGTACACGTGAACGG, 0.26 kcal/mol.
Next, TGTTACACGTGTACTT: 0.12 kcal/mol.
Next, CAGCTCACGTGTGTGT: 0.36 kcal/mol.
For ATTTGCACGTGTCGAT, the “relative binding free energy” value was -0.05 kcal/mol.
Under TTTTTCACGTGGGTGT stands 0.24 kcal/mol; under GGGTACACGTGTTGGC, 0.2 kcal/mol; under CCGGGCACGTGTGTAT, -0.01 kcal/mol.
Next, TTTGGCACGTGTAGAC: -0.14 kcal/mol.
On to ATATGCACGTGCTTTT, for which the “relative binding free energy” value is -0.13 kcal/mol.
Under CTATTCACGTGATCGT stands 0.27 kcal/mol; under AAGTGCACGTGGTATG, -0.09 kcal/mol; under GGTTTCACGTGCCTTG, 0.29 kcal/mol.
On to TTTATCACGTGAGCGA, for which the “relative binding free energy” value was found to be 0.23 kcal/mol.
Take GAGGGCACGTGTGGCG: the “relative binding free energy” value came to 0.03 kcal/mol.
Under TACGGCACGTGAAGTT stands 0.3 kcal/mol.
Next, TTGTTCACGTGTGAAC: 0.26 kcal/mol; TCGGACACGTGTGTAT: -0.04 kcal/mol; AAGAACACGTGGGTGG: 0.02 kcal/mol.
Next, GTATGCACGTGTGCAG: -0.05 kcal/mol.
For the sequence ATCTGCACGTGGGGTA, the “relative binding free energy” value was -0.31 kcal/mol.
As to TTTAGCACGTGGTGCT, the “relative binding free energy” value was -0.28 kcal/mol.
Under TTTCTCACGTGGAAGT stands 0.22 kcal/mol.
For the sequence GGGTGCACGTGTTTCA, the “relative binding free energy” value was 0.03 kcal/mol.
Take GTAGGCACGTGACTTT: the “relative binding free energy” value is 0.11 kcal/mol.
Under GGGGACACGTGGCAGT stands -0.06 kcal/mol; under ATGGGCACGTGGTACG, -0.22 kcal/mol.
For the sequence AGAGACACGTGTGTGT, the “relative binding free energy” value was -0.02 kcal/mol.
Under GCTCGCACGTGGGTGT stands -0.24 kcal/mol; under TGTGTCACGTGAATGC, 0.36 kcal/mol.
Under TTCATCACGTGGTTTT stands 0.15 kcal/mol.
Under GTTAGCACGTGATTGT stands 0.15 kcal/mol; under AGTAGCACGTGCAGTT, -0.17 kcal/mol.
Turning to AATTCCACGTGAGGTG, the “relative binding free energy” value was 0.25 kcal/mol.
